“And” between values parts separate entries of the source, which are not always exact repeats. Equal values may be shown once. Among all 340,000 compounds or so, about 12,000 (3.5%) were called active. Inconclusive results, whose numbers are uncertain, are shown with a selection of clear calls. Calls follow the shape of the dose curve; as a rule, active = well fitted inhibition curve with a large enough effect; inconclusive = small, poorly fitted or top-dose-only effect, or another doubt; inactive = no such curve, though single readings can be large or run the other way. Where the call is inconclusive, the potency comes from a doubtful curve fit.
Assay: qHTS Assay for Inhibitors of Hepatitis C Virus (HCV)
Conditions: Huh7.5.1 HCVcc-Cre (HCVcc is cell-culture hepatitis C virus) infection, luciferase reporter, 44 h; activity change, negative = inhibition: at 41.8 µM (top of the series)
Method in brief: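 Cells (1,000/well) were plated 4 h before compound, then infected with HCVcc-Cre virus (~0.5 moi). After 44 h further culture, infection was read as luciferase luminescence following a 15 min substrate incubation at room temperature.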
For `Cc1cccc2c(CCNC(=O)c3ccc([N+](=O)[O-])cc3)c[nH]c12`, the Potency was inconclusive: 31.6 µM [inhibitor, single point]. With `CCOc1ccc2ccccc2c1/C=N/NC(=O)CNC(=O)Cc1ccccc1` the Potency was inconclusive: 20 µM [inhibitor, partial curve, poor fit]. For `COC(=O)c1sccc1NC(=O)c1ccccc1Br`, the Potency was inconclusive: 11.2 µM [inhibitor, single point]. With `CCc1nccn1CCC(=O)N1CCCC(Nc2ccc(F)cc2)C1` (centres undefined) the “activity change, negative = inhibition” value was inactive: -0.128%. For `Cc1ccccc1N=Nc1ccc(O)c2ncccc12`, the Potency was inconclusive: 5.01 µM [inhibitor, full curve]. With `CN(/N=C/c1ccc(O)cc1O)c1ncc(C(F)(F)F)cc1Cl` the “activity change, negative = inhibition” value was inactive: -27.8%. In the case of `CCOC(=O)c1cc2c(c(CCO)n1)[C@@H](CCO)N(S(=O)(=O)C(C)(C)C)C2`, the “activity change, negative = inhibition” value is reported as inactive: -3.52%. For `CCc1nc(NC(C)(C)C)c2cnn(-c3ccccc3)c2n1`, the Potency was inconclusive: 11.2 µM [inhibitor, partial curve]. With `COc1ccccc1C1=NN(C(=O)c2ccccc2)C(c2ccc(Br)cc2)C1` (centres undefined) the “activity change, negative = inhibition” value was inactive: -9.58%. For `O=C(CNC(=O)c1ccncc1)N/N=C/c1cc(Br)ccc1OCc1ccccc1`, the Potency was inconclusive: 12.6 µM [inhibitor, partial curve]. For `COc1ccc(-c2noc(C3CCCN(C(=O)c4cccc(C)c4)C3)n2)cc1` (centres undefined), the Potency was inconclusive: 31.6 µM [inhibitor, single point]. With `NC1=NC[C@@H](Cc2ccc(O)cc2)N1CCC12CC3CC(CC(C3)C1)C2` the Potency was inconclusive: 15.8 µM [inhibitor, single point]. For `COc1cc(COc2ccc(S(=O)(=O)N3CCOCC3)cc2[N+](=O)[O-])ccc1OC(F)F`, the Potency was inconclusive: 11.2 µM [inhibitor, partial curve]. In the case of `COc1ccc(Nc2nc(C)c(-c3ccccc3)s2)cc1`, the Potency is reported as inconclusive: 22.4 µM [inhibitor, single point]. In the case of `Cc1sc2c(c1C)C(O)=C(C(=O)Nc1ccccc1)S(=O)(=O)N2C`, the “activity change, negative = inhibition” value is reported as inactive: 7.57%. For `COC(=O)c1c(C)oc2ccc(OC(=O)c3cccs3)cc12`, the Potency was inconclusive: 20 µM [inhibitor, single point]. In the case of `COc1ccc(-c2nnc(OCc3nc4ccccc4n3C)c3ccccc23)cc1`, the Potency is reported as inconclusive: 10 µM [inhibitor, partial curve]. With `Cc1cc(SCC(=O)NCCN2C(=O)CSC2=O)nc2c(C)cccc12` the Potency was inconclusive: 31.6 µM [inhibitor, single point]. For `CC1CCN(C(=O)c2[nH]cnc2C(=O)N[C@@H](CCCCNC(=O)OC(C)(C)C)C(=O)OC(C)(C)C)CC1`, the Potency was inconclusive: 31.6 µM [inhibitor, single point]. With `O=C(/C=C/Nc1ccccc1F)c1cccs1` the “activity change, negative = inhibition” value was inactive: 8.64%. In the case of `CC(=NNc1nc2ccccc2o1)c1ncccn1`, the Potency is reported as active: 3.55 µM. For `CCOc1ccc(NC(=O)Cn2cncc2-c2ccc([N+](=O)[O-])cc2)cc1`, the Potency was inconclusive: 31.6 µM [inhibitor, single point]. For `CC1CCCN(CCCNC(=O)c2nn(C)c3c2CSc2ccccc2-3)C1` (centres undefined), the Potency was inconclusive: 31.6 µM [inhibitor, single point]. In the case of `CCn1ncc(CNC(=O)CCCSc2nc(-c3ccco3)cc(C(F)(F)F)n2)c1C`, the Potency is reported as inconclusive: 12.6 µM [inhibitor, partial curve]. In the case of `CCn1c(SCC(=O)OC)nc2sc3c(c2c1=O)CCC3`, the Potency is reported as inconclusive: 35.5 µM [inhibitor, partial curve]. In the case of `CCOc1ccc(OCC)c(NC(=O)C2CCCN(c3nc(C)cc(C)n3)C2)c1` (centres undefined), the Potency is reported as inconclusive: 0.891 µM [inhibitor, full curve]. For `CN1C(=O)C(=Cc2ccccc2Oc2ccc(Cl)c(F)c2)C(=O)N(C)C1=O`, the “activity change, negative = inhibition” value was inactive: 5.47%. In the case of `COc1ccc(-c2ccc(/C=C3/C(=N)N4C=CSC4=NC3=O)o2)c([N+](=O)[O-])c1`, the Potency is reported as inconclusive: 5.62 µM [inhibitor, single point]. With `CCOC(=O)c1ccc2[nH]c3ccccc3c2c1` the Potency was inconclusive: 3.98 µM [inhibitor, full curve, poor fit]. For `COC(=O)c1cc(COc2ccc3ccc(=O)oc3c2)c(C)o1`, the “activity change, negative = inhibition” value was inactive: -23.8%. For `CCOC(=O)C1=CN(Cc2ccco2)S(=O)(=O)N(C)C1c1ccc(C(F)(F)F)cc1` (centres undefined), the Potency was inconclusive: 11.2 µM [inhibitor, partial curve]. For `O=[N+]([O-])c1ccc(N2CCCCCC2)c(S(=O)(=O)N2CCCCC2)c1`, the Potency was inconclusive: 2 µM [inhibitor, partial curve]. For `C=CC[C@@H](CC(=O)OC(C)(C)C)C(=O)OC[C@@H]1CCCN1C(=O)[C@@H](CC=C)CC(=O)N[C@H](CO)Cc1ccccc1`, the Potency was inconclusive: 14.1 µM [inhibitor, single point]. With `CCCCSC(=S)NC1CCS(=O)(=O)C1` (centres undefined) the “activity change, negative = inhibition” value was inactive: 12%. In the case of `CC1CCC(C(C)C)C(OC(=O)COC(=O)c2cc(O)ccc2N)C1` (centres undefined), the Potency is reported as inconclusive: 31.6 µM [inhibitor, single point]. In the case of `O=C(c1cc(O)c(O)c([N+](=O)[O-])c1)c1ccccc1F`, the Potency is reported as inconclusive: 3.16 µM [inhibitor, single point]. For `O=C(CCc1nc2cccnc2n1Cc1ccccc1)NCCc1ccc(Cl)cc1`, the Potency was inconclusive: 22.4 µM [inhibitor, single point]. For `O=C(Nc1cccc(F)c1)c1ccc(-c2ccccc2Cl)o1`, the Potency was inconclusive: 14.1 µM [inhibitor, single point]. With `COc1ccccc1OCCOc1ccc(C(=O)c2ccccc2)cc1` the Potency was inconclusive: 31.6 µM [inhibitor, single point]. With `O=C(Nc1ccc2nc3n(c(=O)c2c1)CCCC3)c1ccccc1[N+](=O)[O-]` the Potency was inconclusive: 11.2 µM [inhibitor, partial curve, poor fit]. For `Clc1nc(Nc2ccccc2)nc(Nc2ccccc2)n1`, the “activity change, negative = inhibition” value was inactive: -27.8%. For `COc1ccc(CCNc2nc(N3CCOCC3)nc(N3CCOCC3)n2)cc1OC`, the Potency was “inactive and inconclusive: 10 µM [inhibitor, partial curve]”. In the case of `CCC(C)(c1nnnn1-c1c(C)cccc1C)N(N=O)c1ccccc1Cl` (centres undefined), the Potency is reported as inconclusive: 31.6 µM [inhibitor, single point]. For `CCc1ccc(CN2CCCC(C(=O)N3CCCCC3)C2)cc1` (centres undefined), the Potency was inconclusive: 14.1 µM [inhibitor, single point]. For `CCCNC(=O)c1ccccc1NC(=O)c1ccc(CSc2ccccc2)cc1`, the Potency was inconclusive: 7.08 µM [inhibitor, partial curve]. With `COc1ccccc1-c1nc(C#N)c(N2CCCCCC2)o1` the Potency was inconclusive: 10 µM [inhibitor, partial curve]. For `CCn1cnc2cc(NCc3ccccc3Cl)ccc21`, the “activity change, negative = inhibition” value was inactive: -22.6%. In the case of `O=C(N/N=C1\CCCc2ccccc21)c1ccc([N+](=O)[O-])cc1Cl`, the Potency is reported as inconclusive: 20 µM [inhibitor, single point]. In the case of `COc1ccc(NC(=O)c2cccc(OC(F)F)c2)cc1Cl`, the Potency is reported as inconclusive: 6.31 µM [inhibitor, full curve]. In the case of `CC(NC(=O)COC(=O)c1ccccc1SCC(=O)N1CCCC1)c1ccccc1` (centres undefined), the “activity change, negative = inhibition” value is reported as inactive: 19.9%. For `CCCCN1C(=O)/C(=C2\SC(N3CCCCC3)=NC2=O)c2ccccc21`, the Potency was inconclusive: 31.6 µM [inhibitor, single point]. For `C/C(=N\NC(=O)CC(C)C)c1ccc(N2CCCCC2)cc1`, the Potency was inconclusive: 22.4 µM [inhibitor, single point]. For `O=C(OCc1ccc([N+](=O)[O-])cc1)c1cc([N+](=O)[O-])ccc1N1CCOCC1`, the Potency was active: 4.47 µM. In the case of `Cc1cccc(C)c1NC(=O)CSc1nnc(NC(=O)c2ccccc2C(=O)O)s1`, the “activity change, negative = inhibition” value is reported as inactive: 2.2%. With `O=C(Nc1ccccc1-c1nc2ccccc2s1)c1ccco1` the Potency was active: 3.98 µM. With `O=[N+]([O-])c1cc(S(=O)(=O)Oc2ccccc2)ccc1Cl` the Potency was inconclusive: 31.6 µM [inhibitor, single point]. For `Cc1cccc(C2c3[nH]c4ccccc4c3CCN2C(=O)c2cc(CC(C)C)[nH]c(=O)n2)n1` (centres undefined), the “activity change, negative = inhibition” value was inactive: -6.13%. For `COc1ccc(C(C)=O)cc1CSc1ccc(S(=O)(=O)N2CCOCC2)cn1`, the Potency was inconclusive: 10 µM [inhibitor, partial curve]. With `CCOc1ccc(N2CC(C(=O)Nc3nnc(C4CCCCC4)s3)CC2=O)cc1` (centres undefined) the “activity change, negative = inhibition” value was inactive: 24.8%. For `c1coc(-c2nnc(-c3ccco3)nn2)c1`, the “activity change, negative = inhibition” value was inactive: 19.3%. With `O=C(NCc1csc2ccccc12)Nc1cc(Cl)cc(Cl)c1` the Potency was inconclusive: 11.2 µM [inhibitor, partial curve]. With `Cc1nc(N2CCOCC2)c2c(C)c(C(=O)Nc3ccc(F)cc3F)sc2n1` the “activity change, negative = inhibition” value was inactive: -28%. For `Cc1ccc(C(=O)OC(C)C(=O)N(C)C2CCCCC2)cc1S(=O)(=O)N1CCCCC1` (centres undefined), the Potency was inconclusive: 15.8 µM [inhibitor, single point]. With `C=CCNC(=S)N1CCN(c2cc3c(cc2F)c(=O)c(C(=O)O)cn3CC)CC1` the “activity change, negative = inhibition” value was inactive: -1.96%. In the case of `CN(CCOc1ccc(Cl)cc1)C(=O)c1cc(-c2ccco2)nc2ccccc12`, the Potency is reported as inconclusive: 3.98 µM [inhibitor, partial curve]. In the case of `COc1ccc(C)cc1NC(=O)CNc1ccccc1CN(C)C1CCCCC1`, the “activity change, negative = inhibition” value is reported as inactive: -3.21%. For `O=C(NCCCn1ccnc1)c1cnn2c1NC(c1ccccc1)CC2C(F)(F)F` (centres undefined), the Potency was inconclusive: 3.98 µM [inhibitor, partial curve]. With `CC(=O)c1sc2nc(-c3cccs3)cc(C(F)(F)F)c2c1N` the Potency was inconclusive: 1.78 µM [inhibitor, partial curve, poor fit]. In the case of `O=C(c1ccc2nc(N3CCOCC3)sc2c1)N1CCCC1`, the Potency is reported as inconclusive: 5.62 µM [inhibitor, single point].

— PubChem BioAssay AID651820 (National Center for Advancing Translational Sciences (NCATS), 2012)
% is scaled to controls: 0 for no effect and ±100 for the full control effect; potency is read from the fitted curve at half-maximal effect; tags tell the direction and shape of the fitted curve.
